Our source for the switch fluorescence ratio values is the supplement of paper PMC10126150.

Values marked as one replicate rest on one cluster of the flow cell; about a third of the high ones do not repeat.

This series deals with ATP. Kind of series: switch fluorescence ratio, 500 uM ATP over buffer (Cy3 cluster intensity, sum of 5 cycles each) (fold (ratio)); higher = stronger signal-on switching upon ATP binding; sequences stand for … in TCGTCGGCAGCGTCAGATGTGTATAAGAGACAGTTTTTTTTTTTTTTTTTTTTTTTTT…TC. Particulars: aptamer strand: ATP DNA aptamer (quencher-CACCTGGGGGAGTATTGCGGAGGAAGG + anchor), 100 nM annealed; ATP concentration: 500 uM; one replicate. The gist of the method: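 For every switch-domain sequence, the fluorescence ratio is the mean of per-cluster values, each being summed target-cycle Cy3 intensity over summed buffer-cycle Cy3 intensity. Clusters outside 100-1000 RFU were excluded. On a modified Illumina MiSeq flow-cell, the Cy3-labelled switching-strand clusters were annealed to 100 nM quencher-labelled ATP aptamer, imaged in selection buffer and then after 15 min with 500 uM ATP at 22 °C. Five such cycles were run, with NaOH stripping and re-annealing between them.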
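Also: ATP exposure 15 min at 22 °C before imaging.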

For GTGGTAGCGC, the switch fluorescence ratio amounted to 1.07.

For ATTTTTGGT, the switch fluorescence ratio turned out to be 0.99.

In the case of TTCATCGAGT, the switch fluorescence ratio worked out at 1.03.

Consider TTTTCATAGC, for which the switch fluorescence ratio was found to be 1.08.

For CATGAACAAA, the switch fluorescence ratio is 1.

As for AGCGGGTAC, the switch fluorescence ratio came out at 1.23.

Consider CGCCAATGGG, for which the switch fluorescence ratio was 1.09.

Take TAAAAGTCAA: the switch fluorescence ratio amounted to 0.993.

For the sequence CAACAAAAAA, the switch fluorescence ratio worked out at 0.983.

Regarding GGTTAAGAAG, the switch fluorescence ratio amounted to 0.966.

AGCGATAAAG: the switch fluorescence ratio came out at 0.986.

Regarding AAACCGGTTA, the switch fluorescence ratio amounted to 0.993.

Turning to AAATAAATTA, the switch fluorescence ratio amounted to 1.06.

TTGCTGTACA: the switch fluorescence ratio was determined as 0.998.

For TGGAACTTGG, the switch fluorescence ratio came to 1.02.

As to TAATCCACCA, the switch fluorescence ratio was found to be 1.06.

Regarding ACGACCTCAT, the switch fluorescence ratio stood at 1.21.

In the case of TCAGCTTATG, the switch fluorescence ratio amounted to 0.937.

With TGATGCCAGG, the switch fluorescence ratio is 1.19.

As for CCCGTTCTGT, the switch fluorescence ratio stood at 1.01.

Take AGCTATAAGT: the switch fluorescence ratio stood at 0.996.

Take GTATGCGTAG: the switch fluorescence ratio was 0.999.

Turning to GGACTCTCGC, the switch fluorescence ratio was determined as 1.07.

On to TAATATTGTG, for which the switch fluorescence ratio stood at 1.01.

For AGAGAGATAA, the switch fluorescence ratio came to 1.04.

Regarding GTTCTTGGCA, the switch fluorescence ratio worked out at 0.995.

For the sequence TCATACGTGC, the switch fluorescence ratio is 1.25.

Take GATCAGTATG: the switch fluorescence ratio amounted to 1.

On to AGCATATA, for which the switch fluorescence ratio stood at 1.17.

With GGATTGCCAA, the switch fluorescence ratio was 0.963.

Consider CCGCCGTTAC, for which the switch fluorescence ratio was 5.96.

CATACCTCTG: the switch fluorescence ratio amounted to 1.02.

For CCGGGAAGTG, the switch fluorescence ratio was found to be 1.05.

Consider TCGCGTGCAG, for which the switch fluorescence ratio was 0.977.

With CGTAGGACTA, the switch fluorescence ratio stood at 0.999.

Take TCGGGAGGTA: the switch fluorescence ratio worked out at 0.983.

Take CGAAGCCATG: the switch fluorescence ratio amounted to 1.35.

Consider CGTTTGTCCC, for which the switch fluorescence ratio was found to be 1.02.

Regarding ACACCGGTTT, the switch fluorescence ratio came out at 1.07.

Turning to AAAAAGTTTC, the switch fluorescence ratio stood at 0.981.

On to TGTATTTAGG, for which the switch fluorescence ratio was determined as 0.988.

As to AGTCTTGGCT, the switch fluorescence ratio was 1.02.

In the case of GTACGTAGTC, the switch fluorescence ratio turned out to be 1.01.

As for AGGATGGGT, the switch fluorescence ratio turned out to be 0.982.

For CAAGGATCTC, the switch fluorescence ratio worked out at 0.966.

As to TATCGGAAGT, the switch fluorescence ratio came out at 0.959.

AGTTATCAGC: the switch fluorescence ratio amounted to 0.976.

As for TTCAACTACC, the switch fluorescence ratio was 1.1.

In the case of AAAGAAAACA, the switch fluorescence ratio was 0.984.

CTTGTCACGA: the switch fluorescence ratio turned out to be 1.02.

Take TAAGATATGA: the switch fluorescence ratio was 1.02.

As to GAAGCTGTCA, the switch fluorescence ratio is 0.987.

On to TTGCCCGTTC, for which the switch fluorescence ratio turned out to be 0.945.

Take TGGTCCTTTG: the switch fluorescence ratio is 1.02.

GCCGTAGTTG: the switch fluorescence ratio worked out at 1.01.

As to GAGGCTGAAC, the switch fluorescence ratio came to 1.13.

As to ATTCGGAGTC, the switch fluorescence ratio turned out to be 0.994.

Consider GAGAATCGTT, for which the switch fluorescence ratio worked out at 0.972.

Consider ACCCCGGGAT, for which the switch fluorescence ratio was 1.57.

As to GATTACGACG, the switch fluorescence ratio is 1.07.

As to CCAGCTCTAG, the switch fluorescence ratio is 1.02.

Consider TGTAAGGGGC, for which the switch fluorescence ratio amounted to 0.969.

As to ACCTAGACGC, the switch fluorescence ratio came out at 1.26.

As to GGTTAGCGGT, the switch fluorescence ratio was 0.994.

Regarding GCGCACCCCT, the switch fluorescence ratio was 1.42.

For ACTGAACTTA, the switch fluorescence ratio turned out to be 1.2.

As for TGGGTCGTCA, the switch fluorescence ratio stood at 0.969.
